According to paper PMC4336329 (PLoS ONE, 2015):
Screen size: about 310,000 compounds; about 2,200 (0.71%) showed an effect of 50% or more. Effects have a minus sign here. This is one part of the list.

target: human ether-à-go-go-related gene (hERG) potassium channel (human, UniProt Q12809); assay: primary screen, population patch clamp on CHO cells stably expressing hERG
Sequence (Q12809 whole entry, looked up): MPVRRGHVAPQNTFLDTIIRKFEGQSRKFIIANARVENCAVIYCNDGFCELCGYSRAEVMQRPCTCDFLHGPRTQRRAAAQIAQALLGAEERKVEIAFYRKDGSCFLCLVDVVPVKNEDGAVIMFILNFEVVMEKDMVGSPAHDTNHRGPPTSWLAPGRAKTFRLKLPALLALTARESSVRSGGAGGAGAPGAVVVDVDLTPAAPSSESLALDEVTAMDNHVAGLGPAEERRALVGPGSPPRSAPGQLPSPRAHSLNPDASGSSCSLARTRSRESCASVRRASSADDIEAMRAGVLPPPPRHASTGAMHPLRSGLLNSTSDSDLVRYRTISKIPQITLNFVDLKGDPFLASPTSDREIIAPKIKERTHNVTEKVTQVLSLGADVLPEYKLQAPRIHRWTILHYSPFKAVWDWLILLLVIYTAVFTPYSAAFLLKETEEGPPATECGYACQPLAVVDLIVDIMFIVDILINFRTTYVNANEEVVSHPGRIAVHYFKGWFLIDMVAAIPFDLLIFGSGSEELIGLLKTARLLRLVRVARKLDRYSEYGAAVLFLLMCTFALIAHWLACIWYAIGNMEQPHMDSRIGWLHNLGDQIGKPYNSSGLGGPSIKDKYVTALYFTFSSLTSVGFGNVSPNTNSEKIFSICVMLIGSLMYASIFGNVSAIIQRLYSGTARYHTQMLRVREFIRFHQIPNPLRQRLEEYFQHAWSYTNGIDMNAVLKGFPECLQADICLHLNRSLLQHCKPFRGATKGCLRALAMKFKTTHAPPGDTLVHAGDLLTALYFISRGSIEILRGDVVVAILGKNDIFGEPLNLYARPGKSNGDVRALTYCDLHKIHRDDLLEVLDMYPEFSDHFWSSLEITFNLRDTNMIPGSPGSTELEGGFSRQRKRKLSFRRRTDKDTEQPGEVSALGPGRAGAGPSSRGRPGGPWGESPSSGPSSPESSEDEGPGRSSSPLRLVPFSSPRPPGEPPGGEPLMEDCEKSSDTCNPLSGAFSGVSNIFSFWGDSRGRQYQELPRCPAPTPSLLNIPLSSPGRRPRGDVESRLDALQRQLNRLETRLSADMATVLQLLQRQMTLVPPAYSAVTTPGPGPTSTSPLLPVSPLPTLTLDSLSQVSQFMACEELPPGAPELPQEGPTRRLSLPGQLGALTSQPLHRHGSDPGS

SMILES | hERG current change (%, negative = inhibition) at 1uM [%]
CCCn1ncc(CN2CCC(N3CCC(C(=O)N4CCOCC4)CC3)CC2)c1C | 5.56
COc1ccc(/C=N\Nc2ccc([N+](=O)[O-])cc2[N+](=O)[O-])c(C(=O)O)c1OC | -4.14
O=C(O)c1cc(N2CCOCC2)nc2ccccc12 | 12.5
COc1c2c(nc3ccccc13)OC(C(C)(O)COC(C)=O)C2 (stereo not shown) | -5.16
CCOC(CNC(=O)c1ccc(N2CCc3ccccc32)c([N+](=O)[O-])c1)OCC | -5.37
CC(=O)O.N=c1ccn2c(n1)OC1C(O)C(CO)OC12 (stereo not shown) | 8.06
NC(=O)C1=C[C@H](c2coc3ccccc3c2=O)C[C@H](OCc2ccc(CO)cc2)O1 | 11.4
Cc1csc(SC(C)C(=O)Nc2ccc3c(c2)OCCO3)n1 (stereo not shown) | 8.06
COc1ccc(C(=O)OCC(=O)Nc2cc(C)on2)cc1S(=O)(=O)N1CCOCC1 | 3.14
CCCC(=O)N(CCc1ccc(OC)cc1)Cc1nc2ccccc2c(=O)[nH]1 | -4.11
CCOc1ccc(Cl)cc1Nc1nc(NCCO)nc(N2CCCC2)n1 | 5.92
Cc1cccc(CNC(=O)Cn2ccc3cc(S(=O)(=O)N4CCCCCC4)ccc32)c1 | 17.2
Cc1ccc(NC(=O)CS(=O)(=O)c2cn(CC(=O)N3CCOCC3)c3ccccc23)cc1 | 9.48
O=C(COc1ccc2c(c1)oc(=O)c1ccccc12)N[C@@H](Cc1c[nH]c2ccccc12)C(=O)O | 14.8
CCOC(=O)c1cc(C#N)c(N2CCN(C(=O)c3cccc(C(F)(F)F)c3)CC2)nc1C(F)(F)F | 9.92
Cc1ccccc1SCc1noc(C(=O)NCC2CCCO2)c1C(=O)O (stereo not shown) | 14
Cc1cc(F)ccc1S(=O)(=O)N1CCCOC1CNC(=O)C(=O)NCC(C)C (stereo not shown) | 1.4
Cn1c(SCC(=O)N2CCOCC2)nnc1-c1cccc(NC(=O)c2ccccc2)c1 | 12.3
COc1ccc(CNCc2cccc(Oc3ccccc3)c2)cc1 | -0.928
CCOC(=O)COc1ccc(C(=O)NC2CCCCC2)cc1 | 6.15
c1coc(-c2nnc(-c3ccco3)nn2)c1 | 15.6
Cc1ccc(C(NC(N)=O)c2ccccc2)cc1 (stereo not shown) | 10.2

SMILES | hERG current change (%, negative = inhibition) at 1uM [%]
C[C@@]12C(=O)N(c3cccc(Br)c3)C(=O)N1[C@H](c1ccc(Cl)cc1)[C@@H]1C(=O)N(C3CCCCC3)C(=O)[C@@H]12 | 9.64
O=P(/C(=N/O)Sc1ccccc1)(N1CCOCC1)N1CCOCC1 | -19.2
COc1ccc(-n2nc(C(=O)NCC(=O)NCCCN3CCOCC3)c3ccccc3c2=O)cc1OC | 8.97
CCOC(=O)c1c(NC(=O)CSc2nnc(C)c(=O)[nH]2)sc2c1CCCC2 | -1.49
CCOc1ccc(CN(C)C(=O)c2cc3ccccc3o2)cc1OC | 4.36
Cc1cccc(CCNC(=O)Cn2ncc3c([nH]c4ccccc43)c2=O)c1 | 5.51
O=C(Nc1ccc(Cl)cc1)NC1CCCC1Cc1ccco1 (stereo not shown) | -0.512
COc1ccc(COc2cc(-c3cccc(OC)c3)nc3ccc(NC(=O)c4ccc(C)cc4)cc23)cc1 | 13.4
CCN(Cc1ccccc1)C(=O)COc1ccccc1 | 12.6
Cc1ccc(NC(=O)/C(C#N)=N/Nc2ccc(C(=O)O)cc2)c(C)c1 | 10.8
COc1cccc2c(N/N=C/c3ccc(O)c(O)c3)cc(C)nc12 | 16.8
COc1ccc(N(Cc2ccccc2)S(=O)(=O)c2cc(C(=O)O)ccc2Cl)cc1 | 5.98
O=c1c2ccccc2nc(SCc2ccccc2)n1Cc1ccco1 | 9.88
O=C(Nc1ccccn1)c1cccnc1 | -1.28
Cc1cccc(NC(=O)CCC(=O)Nc2nnc(C3CCCCC3)s2)c1 | 18.5
Cc1ccc(-n2c(=O)cc(N3CCN(C(=O)c4ccco4)CC3)[nH]c2=O)cc1 | 6.54
CCOc1cc(N2CCOCC2)c(OCC)cc1NC(=O)CSc1n[nH]c(N)n1 | 16.2
O=C(Nc1nc2cc3c(cc2s1)OCO3)C1=COCCO1 | 5.36
NC(=O)c1ccc(C(=O)Nc2ccc([As](=O)(O)O)cc2)cc1 | 12.2
O=C1NC[C@@H](Cc2ccc(O)cc2)N(CCc2cccc3ccccc23)C1=O | 9.78
Cc1ccc(C(=O)NC2CCCC2)cc1S(=O)(=O)N1CCCCC1 | 9.1
